In PubChem BioAssay AID686971 (National Center for Advancing Translational Sciences (NCATS), 2013):
About 7,500 (2.1%) of roughly 360,000 compounds were called active. The inconclusive results got no clear call from the source; some entries with a clear call stand among them for comparison. Calls come from the whole dose curve; as a rule, active = well fitted cell-killing curve with a large enough effect; inconclusive = small, poorly fitted or top-dose-only effect, or effect the other way, or another doubt; inactive = no such curve, though single readings can be large or run the other way. No potency is given beside an inconclusive call; the fits are too rough.
Potency is the fitted concentration of half-maximal effect; tags give direction and shape of the fitted curve.

Experiment: qHTS for induction of synthetic lethality in tumor cells producing 2HG: qHTS for the HT-1080-IDH1KD cell line;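 for activity, negative = toxicity: 0% = DMSO wells and -100% = cell-free medium wells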
Details: HT-1080 IDH1 knockdown viability, ATP luminescence, 48 h; activity, negative = toxicity: at 46.1 µM (top of the series) unless noted
Procedure, shortened: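 Using the IDH1-knockdown HT-1080 line run in the same batch and compound series as the NT line, viability after 48 h at 37 °C was determined by CellTiter-Glo luminescence and expressed as % activity.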
With `CCOc1ccc2nc(NC3=NC(c4ccc(OC)cc4)CC(=O)N3)nc(C)c2c1` (stereo not drawn) the Potency was inconclusive [cytotoxic, single point]. For `COc1ccc(CN(C)CC(=O)Nc2ccccc2-c2ccccc2)c(OC)c1`, the Potency was inconclusive [cytotoxic, single point]. In the case of `CCOC(=O)CSC1=NC(=O)/C(=C/c2ccc(OC)cc2)S1`, the Potency is reported as inconclusive [cytotoxic, single point]. In the case of `COc1cc(C(=O)N/N=C(\C)c2ccc3c(c2)OCO3)cc(OC)c1OC`, the Potency is reported as active: 3.66 µM. With `CCOC(=O)C1CCN(C(=O)CC(C)S(=O)(=O)c2ccc3c(c2)NC(=O)CO3)CC1` (stereo not drawn) the Potency was “inactive”. With `COc1ccc(OCCNC(=O)C2(C)CCN2Cc2ccc(SC)cc2)cc1` (stereo not drawn) the Potency was “inactive”. In the case of `C[S+](CC[C@H](N)C(=O)O)C[C@H]1O[C@@H](n2cnc3c(N)ncnc32)[C@H](O)[C@@H]1O` (stereo partly drawn), the Potency is reported as “inactive”. In the case of `CN(Cc1ccccc1)c1ncnc2ccc(Br)cc12`, the Potency is reported as inconclusive [cytotoxic, single point]. For `O=C(CC1(O)C(=O)Nc2ccccc21)c1ccccc1O` (stereo not drawn), the Potency was “inactive”. For `Cc1cccc(OCCn2c(CCCO)nc3ccccc32)c1`, the Potency was “inactive”. In the case of `O=C(COc1ccccc1-c1ccccc1)NN=C1CCCC1`, the Potency is reported as inconclusive [cytotoxic, partial curve]. In the case of `CC(=O)N(C)c1ccc(N=Cc2c(O)ccc3ccccc23)cc1`, the Potency is reported as inconclusive [cytotoxic, single point]. For `COc1cc(OC)c2ccc(=O)oc2c1C(CC(=O)N1CCCC(C)C1)c1ccc2c(c1)OCO2` (stereo not drawn), the Potency was “inactive”. With `Cc1ccc2nc(-c3ccc4c(c3)OCCO4)cn2c1` the Potency was active: 2.31 µM. In the case of `CCCCC(O)(c1ccc(CC)cc1)C(CN1CCOCC1)c1ccccc1` (stereo not drawn), the Potency is reported as inconclusive [cytotoxic, single point]. For `Cc1noc(C)c1COc1ccc(C(=O)OCC(N)=O)cc1`, the Potency was “inactive”. In the case of `CC(=O)OCCN(C)c1cc(SC(C)C)c2nonc2c1[N+](=O)[O-]`, the Potency is reported as inconclusive [cytotoxic, full curve, poor fit]. In the case of `O=c1c2c(nc3n1CCCCC3)-c1ccccc1CC21CCCC1`, the Potency is reported as inconclusive [cytotoxic, single point]. In the case of `COc1ccc(-c2nc3cnccn3c2NC2CCCCC2)cc1-c1cccc(Cl)c1`, the Potency is reported as inconclusive [cytotoxic, single point]. In the case of `COc1ccc(NC(=O)C2CCC(N3C(=O)C4C5C=CC(C5)C4C3=O)CC2)cc1` (stereo not drawn), the Potency is reported as “inactive”. For `CC(C)n1c(CNC(=O)c2ccccc2F)nnc1SCC(=O)c1ccc(F)cc1`, the Potency was “inactive”. With `COc1ccc(NC(=O)c2ccc3[nH]c(=O)c(=O)[nH]c3c2)c(OC)c1` the Potency was “inactive”. With `CN1CCN(CCCNC(=O)c2ccc(/C=C3\Sc4ccccc4N(Cc4ccccc4F)C3=O)cc2)CC1` the Potency was inconclusive [cytotoxic, single point]. With `O=C(CSc1nnc(-c2ccc(Cl)cc2)n1Cc1ccco1)NCc1ccc2c(c1)OCO2` the Potency was “inactive”. In the case of `COc1ccc(C(=O)C2CCCN(C(=O)COc3ccc(C(C)=O)cc3)C2)cc1F` (stereo not drawn), the Potency is reported as “inactive”. In the case of `Cc1nn(Cc2ccccc2)c2sc(C(=O)N3CCN(Cc4ccc5c(c4)OCO5)CC3)cc12`, the Potency is reported as inconclusive [cytotoxic, single point]. For `CC1CC(C)(C)CC2(C1)NC(=O)N(CC(=O)OCc1ccc(Br)cc1)C2=O` (stereo not drawn), the Potency was inconclusive [cytotoxic, single point]. For `CC(=O)c1ccc(-c2cccc([C@H]3[C@@H]4C=CC[C@@H](C)[C@@H]4C(=O)N3Cc3ccccc3)c2)cc1`, the Potency was inconclusive [cytotoxic, single point]. With `CCc1cccc(NC(=O)CN2C(=O)NC3(CCCCCCC3)C2=O)c1` the Potency was inconclusive [cytotoxic, partial curve]. With `COc1ccc(OCC(=O)Nc2cc(NC(=O)c3ccco3)ccc2OC)cc1` the Potency was “inactive”. For `Cc1ccc(NC(=O)Cn2nnc(C(=O)NCc3ccco3)c2N)cc1`, the Potency was inconclusive [cytotoxic, single point]. For `CCOc1ccc(N2CC(C(=O)NCC(=O)Nc3ccc(F)c(F)c3F)CC2=O)cc1` (stereo not drawn), the Potency was “inactive”. In the case of `COc1ccc(C(=O)Nc2ccccc2C(=O)NC2CC2)c(OC)c1OC`, the Potency is reported as “inactive”. In the case of `COc1ccc(S(=O)(=O)N2CCc3ccccc32)cc1C(=O)Nc1ccc(C(N)=O)cc1`, the Potency is reported as inconclusive [cytotoxic, single point]. In the case of `COc1ccccc1-c1nnc(Sc2nc([N+](=O)[O-])nn2C)o1`, the Potency is reported as active: 3.98 µM. With `O=[N+]([O-])c1ccc(/C=N/N/C(=N/c2ccccn2)c2ccccn2)cc1` the Potency was active: 10 µM. In the case of `CSc1nc(N(C)NC(=O)c2ccc(Cl)cc2)c2ccccc2n1`, the Potency is reported as inconclusive [cytotoxic, full curve]. In the case of `C[C@H](NC(=O)c1ccco1)C(=O)NNC(=O)COc1cccc(C(F)(F)F)c1`, the Potency is reported as “inactive”. For `CCNc1nc(NC(C)C)nc(-c2ccncc2)n1`, the Potency was “inactive”. In the case of `NC(Cc1ccc(C(F)(F)F)cc1)c1csc(Nc2nccc(C(F)(F)F)n2)n1` (stereo not drawn), the Potency is reported as inconclusive [cytotoxic, single point]. For `O=C(c1cccc(Cl)c1)c1nn(-c2ccccc2)c(=O)cc1C(F)(F)F`, the Potency was inconclusive [cytotoxic, single point]. In the case of `Clc1ccc(-c2c[n+](Cc3ccc(Br)cc3)c3n2CCCCC3)cc1`, the Potency is reported as inconclusive [cytotoxic, single point]. For `O=C(Cn1cnc2c(nnn2Cc2ccc(Cl)cc2)c1=O)NCc1ccco1`, the Potency was inconclusive [cytotoxic, single point]. For `CC(=O)c1cccc(NC(=O)COc2ccccc2)c1`, the Potency was “inactive”. In the case of `CCCS(=O)(=O)NC(=O)C1(C)CCN(C(=O)c2sccc2C)C1` (stereo not drawn), the Potency is reported as “inactive”. For `Cc1ccccc1C(=O)O/N=C(\N)Cc1cccs1`, the Potency was active: 18.4 µM. With `COc1ccccc1N=c1oc2cc(O)ccc2cc1C(N)=O` the Potency was inconclusive [cytotoxic, partial curve, poor fit]. With `O=C(N/N=C/c1ccc(-c2ccccc2[N+](=O)[O-])o1)c1cccnc1` the Potency was “inactive”. In the case of `CSc1nc2nc3c(cn2n1)C(=O)CC(c1ccccc1)C3` (stereo not drawn), the Potency is reported as “inactive”. With `CC(=O)NC(c1ccc(Cl)cc1)c1c(O)ccc2ccc(O)cc12` (stereo not drawn) the Potency was inconclusive [cytotoxic, single point]. For `COc1cccc(CCNC(=O)CC2C(=O)NCCN2Cc2ccc(C)o2)c1` (stereo not drawn), the Potency was “inactive”. With `FC(F)(F)Oc1ccccc1C(c1nnnn1C1CCCCC1)N1CCN(C/C=C/c2ccccc2)CC1` (stereo not drawn) the Potency was inconclusive [cytotoxic, single point]. In the case of `COc1ccc(Cl)cc1CC1(C)C(=O)Nc2c(Cl)cccc21` (stereo not drawn), the Potency is reported as inconclusive [cytotoxic, single point]. In the case of `Cc1ccc(NC(=O)/C(C#N)=C(\N)C(Cl)(Cl)Cl)nc1`, the Potency is reported as inconclusive [cytotoxic, single point]. With `Cc1ccc(S(=O)(=O)/N=C2/C=C(Sc3ncn[nH]3)C(=O)c3ccccc32)cc1` the Potency was active: 3.66 µM. With `O=C(Nc1ccc(Cl)c(C(F)(F)F)c1)C1Cc2c(-c3ccccc3)ccnc2O1` (stereo not drawn) the Potency was inconclusive [cytotoxic, single point]. In the case of `O=C(/C=C/c1cccc([N+](=O)[O-])c1)c1ccc([N+](=O)[O-])o1`, the Potency is reported as active: 5.8 µM. For `COC1=CC(=O)C[C@@H](C)[C@]12Oc1c(Cl)c(OC)cc(OC)c1C2=O`, the Potency was inconclusive [cytotoxic, single point]. With `Fc1ccc(-c2nc3n(n2)Cc2ccccc2-3)cc1` the Potency was active: 14.6 µM. With `S=C(NCCCc1ccccc1)Nc1ccc(Cl)cc1` the Potency was inconclusive [cytotoxic, single point]. With `CN(C)CCNc1ncnc2sc(-c3ccccc3)cc12` the Potency was inconclusive [cytotoxic, single point]. For `Cc1cc2nnc(SCC(=O)NCc3ccco3)n2c2ccccc12`, the Potency was inconclusive [cytotoxic, partial curve]. In the case of `O=C(Nc1ccc(S(=O)(=O)N2CCCCC2)cc1)C1CC(=O)N(c2ccc(Cl)cc2)C1` (stereo not drawn), the Potency is reported as inconclusive [cytotoxic, single point]. In the case of `CCCS(=O)(=O)NC(=O)C1(C)CCCN(C(=O)c2cc(C)on2)C1` (stereo not drawn), the Potency is reported as inconclusive [rising, single point]. For `S=C(Nc1ccc(Oc2ccccc2)cc1)NC1CCCCCC1`, the Potency was inconclusive [cytotoxic, single point]. In the case of `COc1ccc(NC(=O)c2ccc(S(=O)(=O)N(C)c3ccccc3)cc2)cc1S(=O)(=O)N1CCOCC1`, the Potency is reported as inconclusive [cytotoxic, single point]. For `CCc1c(-c2ccc(OC)cc2)ncn1Cc1cccc(-c2ccccc2)c1`, the Potency was inconclusive [cytotoxic, single point]. With `CN(C)C1=NCCN1CC1CCCC1` the Potency was “inactive”. For `COc1ccccc1-c1cc(C(F)(F)F)nc(S(=O)(=O)CCCC(=O)NCc2ccc(F)cc2)n1`, the Potency was active: 16.4 µM. For `CNC(=S)N/N=C/c1c(C)nn(-c2cccc(Cl)c2)c1Cl`, the Potency was inconclusive [cytotoxic, single point]. For `Oc1[nH]c2ccccc2c1N=Nc1ccccc1F`, the Potency was inconclusive [cytotoxic, single point]. For `Cc1cc(C)n2nc(SCc3cccc(S(=O)(=O)N(C)C)c3)nc2n1`, the Potency was “inactive”. In the case of `CCCCN1C(=O)C(=O)N(CC(=O)Nc2ccc(C(N)=O)cc2)C1=O`, the activity, negative = toxicity is reported as inconclusive: -5.62% [cytotoxic].
